# Measured values: PubChem BioAssay AID686992 (Broad Institute, 2013)
# The whole screen tested about 260,000 compounds, of which about 960 (0.37%) were called active. Inconclusive results, whose numbers are uncertain, are shown with a selection of clear calls.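 The calls were made as follows: active = mean E-selectin-positive cell signal at least 10% of the positive control, reached in at least 60% of replicates, without over 20% cell loss; inconclusive = no rule given, readout overlaps actives, possibly toxicity-flagged; inactive = the rest, including those meeting only one limit.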
# Target: E-selectin (Homo sapiens) (UniProt P16581)
# Experiment: inducers of endothelial E-selectin expression – imaging, HUVEC, immunofluorescence imaging, single point, primary screen (AID 686992);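 also: signal is the percent of cells scored E-selectin positive by PE staining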
# Conditions: at 7.58 µM, hits give high values, normalized: neutral wells 0, TNF-alpha wells 100
# In short: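 Assay system: HUVEC, human umbilical vein endothelial cells / Amount: 3,000 HUVEC/well / Controls: TNF-alpha positive control, DMSO neutral control / Compound dosing: single concentration / Medium: EGM-2 over gelatin coat / Evaluation: percent E-selectin-positive cells / Signal: immunofluorescence imaging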
# UniProt P16581, sequence (P16581 whole entry, looked up): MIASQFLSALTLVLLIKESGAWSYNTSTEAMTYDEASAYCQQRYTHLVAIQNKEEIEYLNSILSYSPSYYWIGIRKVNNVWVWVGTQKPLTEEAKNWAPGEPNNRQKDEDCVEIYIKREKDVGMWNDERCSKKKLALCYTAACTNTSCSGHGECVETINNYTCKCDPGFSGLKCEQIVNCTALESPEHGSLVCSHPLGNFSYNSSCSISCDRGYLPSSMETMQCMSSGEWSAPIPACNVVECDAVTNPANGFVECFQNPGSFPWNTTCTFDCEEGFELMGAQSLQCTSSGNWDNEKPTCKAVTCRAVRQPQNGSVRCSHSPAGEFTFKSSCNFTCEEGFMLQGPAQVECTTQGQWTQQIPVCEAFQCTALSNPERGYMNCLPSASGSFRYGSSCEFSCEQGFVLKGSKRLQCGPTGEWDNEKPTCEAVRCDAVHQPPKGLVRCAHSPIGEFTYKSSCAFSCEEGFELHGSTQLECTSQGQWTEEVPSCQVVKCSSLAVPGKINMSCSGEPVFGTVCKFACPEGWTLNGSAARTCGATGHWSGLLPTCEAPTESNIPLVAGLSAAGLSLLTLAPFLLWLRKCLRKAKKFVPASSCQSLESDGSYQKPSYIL
row,SMILES,activation
1,CCC(=O)Nc1ccc(NC(=O)CSc2nnnn2-c2ccc3c(c2)OCCO3)cc1,inconclusive: 46.3%
2,C[C@@H]1CN([C@@H](C)CO)C(=O)Cc2cc(NC(=O)CCCN(C)C)ccc2O[C@H]1CN(C)C(=O)Nc1ccccc1,inconclusive: 29.5%
3,COCC(=O)Nc1ccccc1Br,inconclusive: 31.3%
4,CC(C)NC(=O)Nc1ccc2c(c1)C(=O)N([C@H](C)CO)C[C@H](C)[C@H](CN(C)Cc1ccc3c(c1)OCO3)O2,inactive: 1.7%
5,COc1ccc2c3c([nH]c2c1)[C@@H](CO)N(C)CC31CN(C(=O)c2ccccn2)C1,inconclusive: 54.3%
6,Cc1cccc(C)c1NC(=O)CN(c1c(C)cccc1C)S(C)(=O)=O,inconclusive: 34.1%
7,COC(=O)N/N=C/c1ccccc1OCc1ccccc1,inconclusive: 42.6%
8,Cc1cc(S(=O)(=O)c2cc3ccc(O)c(C)c3oc2=O)ccc1F,active: 69.9%
9,O=C(O)c1cc(-c2ccccc2)n(-c2ccc(F)cc2)n1,inconclusive: 34.5%
10,C[C@@H]1CN([C@@H](C)CO)C(=O)Cc2cc(NS(=O)(=O)c3cccs3)ccc2O[C@H]1CN(C)S(C)(=O)=O,inconclusive: 33.4%
11,CNC[C@@H]1Oc2c(NC(=O)Nc3ccc(F)cc3)cccc2C(=O)N([C@H](C)CO)C[C@H]1C,active: 131%
12,CN(CCc1ccccc1)C(=O)c1ccc(NC(=O)Cc2ccc(NC(=O)C3CCCN(C(=O)C4CCCCC4)C3)cc2)cc1 (configuration not stated),inconclusive: 67.7%
13,C[C@H](CO)N1C[C@H](C)[C@@H](CN(C)Cc2ccncc2)Oc2ncc(C#CC3(O)CCCC3)cc2C1=O,inconclusive: 39.6%
14,Cc1ccc(-c2ccccc2[C@@H]2[C@@H](C#N)N(C(=O)NC3CCCC3)[C@H]2CO)cc1,inconclusive: 43.8%
15,NS(=O)(=O)c1ccc(N2CCOCC2)c(C(=O)NCc2ccc3c(c2)OCO3)c1,inconclusive: 27.9%
16,C[C@H]1CN([C@@H](C)CO)C(=O)c2ccccc2-c2ccccc2CO[C@H]1CN(C)S(=O)(=O)c1ccc([N+](=O)[O-])cc1,inactive: -0.284%
17,NC(=O)CC(NC(=O)Cc1cccc2ccccc12)c1ccc(NCCc2ccc(F)cc2)c([N+](=O)[O-])c1 (configuration not stated),inactive: 0.0035%
18,COc1ccc(CN(C)C[C@@H]2Oc3ccc(NC(=O)Nc4ccc(F)cc4)cc3CC(=O)N([C@H](C)CO)C[C@H]2C)cc1,active: 82.6%
19,C[C@@H]1CN([C@H](C)CO)S(=O)(=O)c2ccc(-c3cccnc3)cc2O[C@H]1CN(C)C(=O)CC1CC1,inactive: -0.176%
20,Cc1ccc2nc(N3CCN(CCO)CC3)nc(-c3ccccc3)c2c1,inconclusive: 35%
21,O=C(Nc1ccccc1)N1CCCCN2[C@H](CO)[C@H](c3ccc(-c4ccncc4)cc3)[C@H]2C1,inactive: -0.048%

row,SMILES,activation
1,O=C(N[C@@H]1CC[C@@H](CCn2cc(-c3ccccc3F)nn2)O[C@H]1CO)c1ccc2c(c1)OCO2,inactive: -0.166%
2,COc1cccc(CNC(=O)C2CCN(S(=O)(=O)c3ccc4c(c3)NC(=O)C(C)S4)CC2)c1 (configuration not stated),inconclusive: 43.5%
3,CC(C)c1onc(C(=O)N2CCN(C(c3ccccc3)c3ccccc3)CC2)c1[N+](=O)[O-],inactive: 0.169%
4,O=C(c1cccnc1)N1CC(=O)N2[C@H](C1)[C@@H](c1ccc(/C=C/c3ccccc3)cc1)[C@@H]2CO,inactive: -0.46%
5,Cc1noc(C)c1NC(=O)Nc1cccc2c1O[C@H](CN(C)CC1CCCCC1)[C@H](C)CN([C@@H](C)CO)C2=O,inconclusive: 210%
6,Cc1ccc(CSC2=NCCN2S(=O)(=O)c2ccccc2)cc1,inconclusive: 36.2%
7,COc1ccc(NS(=O)(=O)c2ccc3c(c2)CCN3C(=O)CCC(=O)O)cc1OC,inconclusive: 65.2%
8,CN(Cc1ccc(Cl)cc1Cl)C(=O)C1CSC2(C)CCC(=O)N12 (configuration not stated),inconclusive: 73.5%
9,Cc1nn(CC(=O)NCc2ccccc2)c(=O)c2cccn12,inconclusive: 72.6%
10,C[C@H](CO)N1C[C@H](C)[C@@H](CN(C)C)Oc2c(NC(=O)CCCCCC(=O)Nc3ccccc3N)cccc2C1=O,inconclusive: 173%
11,CC(C)COP(=O)(c1ccc(N(C)C)cc1)C(O)c1ccc(Br)cc1 (configuration not stated),inconclusive: 33.1%
12,C[C@H]1CN([C@@H](C)CO)C(=O)Cc2cc(NC(=O)NC3CCCCC3)ccc2O[C@H]1CN(C)S(=O)(=O)c1cn(C)cn1,inconclusive: 48.2%
13,CO[C@@H]1CN(C)C(=O)c2cc(NS(C)(=O)=O)ccc2OC[C@@H](C)N(C(=O)c2ccc3c(c2)OCO3)C[C@@H]1C,inconclusive: 107%
14,COc1ccc(NC(=O)N(C)C[C@H]2Oc3ccc(NS(=O)(=O)c4cccs4)cc3C(=O)N([C@H](C)CO)C[C@@H]2C)cc1,inconclusive: 79.6%
15,CN(C)S(=O)(=O)c1ccc(Cl)c(C(=O)Nc2nc3ccccc3[nH]2)c1,active: 30.2%
16,NC(=O)c1ncn([C@@H]2O[C@H](C(=O)N[C@H](Cc3c[nH]c4ccccc34)C(=O)N3CCN(CC(=O)N4CCCC4)CC3)[C@@H](O)[C@H]2O)n1,inconclusive: 69.8%
17,COc1ccc(S(=O)(=O)N(C)C[C@@H]2Oc3ccc(NC(=O)Nc4cccc5ccccc45)cc3CC(=O)N([C@@H](C)CO)C[C@@H]2C)cc1,inconclusive: 0.438%
18,C[C@@H]1CN([C@H](C)CO)C(=O)Cc2cc(NC(=O)Nc3ccc(F)cc3)ccc2O[C@H]1CN(C)S(=O)(=O)c1ccc(Cl)cc1,inconclusive: 31.4%
19,CNC(=O)C[C@@H]1CC[C@@H]2[C@H](COc3ccc(NC(=O)Nc4ccccc4)cc3C(=O)N2C)O1,inconclusive: 43.6%
20,C#CCOCCOCCOCCNc1nc(N2CCN(C(=O)[C@H]([C@@H](C)CC)n3cc(CCCN=C(N)N)nn3)CC2)nc(N2CCN(C(=O)[C@H](CCCCN)n3cc(CCCC)nn3)CC2)n1,inactive: -0.096%
21,CC1Cc2ccccc2N1C(=O)Cn1c(=O)oc2cc(S(=O)(=O)NC3CCCC3)ccc21 (configuration not stated),inconclusive: 47.2%
